Measured values reported in patent US20230183352A1 (published 2023).
Where a chain is given by its changes, count along the chain named. In names and notes the source's numbering stands.

B1: QP3691433 (bispecific antibody, human IgG1, kappa)
heavy: EVQLVESGGGLVKPGGSLRLSCAASGFTFSNYAMSWVRQAPGKGLEWVASIISGGRTYYLDSEKGRFTISRDNAKNSLYLQMNSLRAEDTAVYYCTRIYYGNSFDYWGQGTLVTVSS[here human IgG1 constant region without letters]GGGSGGGGSGGGGSGGGGSEVQLLESGGGLVQPGGSLRLSCAASGFTYGTYAMSWFRQAPGKGREGVACIDIYGRASYTDPVKGRFTISQDNSKNTLYLQMNSLKAEDTAVYYCAARDFGYCTASWVHEGFSRYWGQGTLVTVSS
light: DIVMTQSPDSLAVSLGERATINCKSSQSLLNSGNQKNYLTWYQQKPGQPPKLLIYWASTRESGVPDRFSGSGSGTDFTLTISSLQAEDVAVYYCQNDYSYPFTFGQGTKLEIKRTVAAPSVFIFPPSDEQLKSGTASVVCLLNNFYPREAKVQWKVDNALQSGNSQESVTEQDSKDSTYSLSSTLTLSKADYEKHKVYACEVTHQGLSSPVTKSFNRGEC
notes: also called QD3691433 (HuQP190191/QP322)
B2: QP3701440 (bispecific antibody, human IgG1, kappa)
heavy: QVQLVQSGAEVKKPGASVKVSCKASGYAFSSYWMNWVRQAPGQGLEWIGQIYPGNGDTTYNGKFKGRVTMTADKSTSTVYMELSSLRSEDTAVYFCARFVKGNAMDYWGQGTLVTVSS[here human IgG1 constant region without letters]GGGSGGGGSGGGGSGGGGSEVQLLESGGGLVQPGGSLRLSCAASGFTYGTYAMSWFRQAPGKGREGVACIDIYGRASYTDPVKGRFTISQDNSKNTLYLQMNSLKAEDTAVYYCAARDFGYCTASWVHEGFSRYWGQGTLVTVSS
light: B1 light with N22S, D97A
notes: also called QD3701440 (HuQP192193/QP322)
B3: QP3711461 (bispecific antibody, human IgG1, kappa)
heavy: QVQLVQSGAEVKKPGASVKVSCKASGYTFTSYIMHWVRQAPGQGLEWMGYINPYNDGTKYNEKFKGRVTMTRDTSTSTVYMELSSLRSEDTAVYYCARLGFTTRNAMDYWGQGTLVTVSS[here human IgG1 constant region without letters]GGGSGGGGSGGGGSGGGGSEVQLLESGGGLVQPGGSLRLSCAASGFTYGTYAMSWFRQAPGKGREGVACIDIYGRASYTDPVKGRFTISQDNSKNTLYLQMNSLKAEDTAVYYCAARDFGYCTASWVHEGFSRYWGQGTLVTVSS
light: B1 light with T40A, W56G, S69T, Y98H
notes: also called CHO14; CH014
B4: QP3691433 (bispecific antibody, human IgG1, kappa)
light: B1 light
heavy: B1 heavy
notes: Anti-CLDN18.2 IgG with the anti-PD-L1 VHH QP322 at the C-terminal of the heavy chain by linker (G4S)4; also called QD3691433 (HuQP190191/QP322)
B5: QP3701440 (bispecific antibody, human IgG1, kappa)
light: B1 light with N22S, D97A
heavy: B2 heavy
notes: Anti-CLDN18.2 IgG with the anti-PD-L1 VHH QP322 at the C-terminal of the heavy chain by linker (G4S)4; also called QD3701440 (HuQP192193/QP322)
B6: QP3711461 (bispecific antibody, human IgG1, kappa)
light: B1 light with T40A, W56G, S69T, Y98H
heavy: B3 heavy
notes: Anti-CLDN18.2 IgG with the anti-PD-L1 VHH QP322 at the C-terminal of the heavy chain by linker (G4S)4; also called CHO14; CHO-14

Key:
[1] = target: T1, Biotin QP004.3 (biotin-PDL1-FC) (human, UniProt Q9NZQ7 partial chain, limits assumed, biotin label, site not stated); experiment: PD-L1 binding ELISA, antibody coated, biotin-PDL1-FC titrated
T1 construct: In-house protein QP004.3

[2] = target: T2, Biotin QP004.3 (biotin-PDL1-FC) (human, UniProt Q9NZQ7 partial chain, limits assumed, biotinylated (sites not given)); experiment: PD-L1/PD-1 blocking ELISA, PD1-FC coated, biotin-PDL1-FC plus antibody, duplicate wells; competitor PD1-FC
[3] = target: T2, Biotin QP004.3 (biotin-PDL1-FC); experiment: PD-L1 binding ELISA, antibody coated, biotin-PDL1-FC titrated
[4] = target: T2, Biotin QP004.3 (biotin-PDL1-FC); experiment: PD-L1/PD-1 blocking ELISA, PD1-FC coated; row labelled EC50; competitor PD1-FC

T2 sequence (Q9NZQ7 19-238 limits assumed): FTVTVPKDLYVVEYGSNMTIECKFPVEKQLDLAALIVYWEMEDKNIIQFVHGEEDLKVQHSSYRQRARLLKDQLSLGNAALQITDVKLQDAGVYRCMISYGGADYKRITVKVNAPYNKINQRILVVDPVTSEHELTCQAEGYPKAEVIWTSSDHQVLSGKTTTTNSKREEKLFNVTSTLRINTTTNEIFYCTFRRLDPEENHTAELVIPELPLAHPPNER

Row | Binder | binding result [1] | ELISA reading at 0.4115 nM antibody [2] | EC50 [3] | IC50 [4]
1 | B1 | binds | – | – | –
2 | B2 | binds | – | – | –
3 | B3 | binds | – | – | –
4 | B4 | – | 2.05 | 4.22 ng/mL | 4.5 nM
5 | B5 | – | – | 6.11 ng/mL | 4.69 nM
6 | B6 | – | – | 7.94 ng/mL | 4.37 nM
